In all, about 310,000 compounds went through this assay and about 14,000 (4.5%) showed an effect of 50% or more. Effects have a minus sign here. This is one part of the list.
What follows are molecules tested against human ether-à-go-go-related gene (hERG) potassium channel (human, UniProt Q12809) (assay: primary screen, population patch clamp on CHO cells stably expressing hERG).
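Note: peak tail current of the secondary pulse compared with the same well before compound.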

Sequence of human ether-à-go-go-related gene (hERG) potassium channel (Q12809 whole entry, looked up): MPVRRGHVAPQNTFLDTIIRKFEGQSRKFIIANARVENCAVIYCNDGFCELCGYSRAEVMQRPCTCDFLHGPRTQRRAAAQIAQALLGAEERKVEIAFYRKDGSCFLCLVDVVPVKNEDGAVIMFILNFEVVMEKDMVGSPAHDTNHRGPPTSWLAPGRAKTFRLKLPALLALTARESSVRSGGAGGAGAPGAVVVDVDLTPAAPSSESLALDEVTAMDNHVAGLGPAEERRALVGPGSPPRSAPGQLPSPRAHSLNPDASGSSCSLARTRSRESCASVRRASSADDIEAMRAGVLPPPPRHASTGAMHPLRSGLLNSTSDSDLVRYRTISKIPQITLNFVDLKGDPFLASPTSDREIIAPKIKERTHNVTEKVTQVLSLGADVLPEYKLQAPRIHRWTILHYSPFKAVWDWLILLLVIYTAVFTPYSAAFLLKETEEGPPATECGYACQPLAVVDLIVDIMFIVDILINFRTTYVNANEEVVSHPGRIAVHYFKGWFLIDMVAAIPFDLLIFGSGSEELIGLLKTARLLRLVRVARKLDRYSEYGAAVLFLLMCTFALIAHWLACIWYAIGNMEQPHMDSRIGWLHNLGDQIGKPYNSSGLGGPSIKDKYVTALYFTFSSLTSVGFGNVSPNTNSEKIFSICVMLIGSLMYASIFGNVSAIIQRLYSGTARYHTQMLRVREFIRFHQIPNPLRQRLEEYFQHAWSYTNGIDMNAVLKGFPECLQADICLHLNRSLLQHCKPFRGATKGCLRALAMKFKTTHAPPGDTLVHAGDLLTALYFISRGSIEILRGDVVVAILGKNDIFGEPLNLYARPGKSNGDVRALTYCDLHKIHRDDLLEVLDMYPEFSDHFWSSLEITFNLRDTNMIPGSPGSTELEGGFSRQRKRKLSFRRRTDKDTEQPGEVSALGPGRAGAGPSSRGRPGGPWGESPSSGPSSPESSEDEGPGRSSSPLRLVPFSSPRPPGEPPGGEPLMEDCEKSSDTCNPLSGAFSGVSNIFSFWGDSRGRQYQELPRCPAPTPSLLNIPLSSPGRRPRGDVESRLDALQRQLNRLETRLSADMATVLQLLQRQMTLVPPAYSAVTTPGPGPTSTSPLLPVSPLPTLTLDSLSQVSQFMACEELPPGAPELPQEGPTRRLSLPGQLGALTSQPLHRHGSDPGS

Row | SMILES | hERG current change (%, negative = inhibition) at 10uM [%]
1 | CC1CN(c2oc(-c3cccs3)nc2C#N)CC(C)O1 (stereo not shown) | -21.5
2 | Brc1ccc(-c2cnc3n2CCCC3)cc1 | -34.2
3 | Cc1cc(Br)ccc1NC(=O)c1sc2ncn(CC(=O)N3CCN(c4ccccn4)CC3)c(=O)c2c1C | -4.32
4 | Cc1cc(OCC(=O)NCc2cccnc2)c2c3c(c(=O)oc2c1)CCCC3 | -40.1
5 | COc1ccc(C)cc1NC(=O)c1ccc(-c2ccc(C(C)=O)cc2)o1 | 2.67
6 | Cc1ccc(S(=O)(=O)N2CCCCC2)cc1C(=O)OCC(=O)NC(=O)NC12CC3CC(CC(C3)C1)C2 | 8.53
7 | COCCCN(C(=S)Nc1c(C)cc(C)cc1C)C(C)c1ccncc1 (stereo not shown) | -18.4
8 | COC(=O)c1[nH]c2cc(OC)ccc2c1NC(=O)CCN1CCN(c2cccc(C)c2C)CC1 | -16.4
9 | COc1cccc(OC)c1OCCCNC1CCCC1.O=C(O)C(=O)O | -7.84
10 | COc1cccc(C2(O)CCN(CC(=O)NCC3CC3)CC2)c1 | -4.37
11 | O=c1c(=O)n2c(nn1Cc1ccc(F)cc1)sc1ccccc12 | 13
12 | CN(C)c1ccc(P(=O)(OCc2ccccc2)C(O)c2ccncc2)cc1 (stereo not shown) | -9.12
13 | O=c1c2c([nH]c3ccccc13)CCC2 | 18.3
14 | COc1ccc(C(=O)NCCn2cc(SCC(=O)Nc3cc(C)on3)c3ccccc32)cc1OC | -12.3
15 | O=C(Cc1c(Cl)cccc1Cl)OCc1ccccn1 | -0.436
16 | Cc1ccc(C(=O)NCC2CCCO2)cc1S(=O)(=O)N1CCCCC1 (stereo not shown) | -10
17 | COc1ccc(S(=O)(=O)Nc2cc(SCC(=O)O)c(O)c3ccccc23)cc1 | 12.4
18 | O=C(CSc1nc2ccc(Cl)cc2[nH]1)Nc1ccc2[nH]c(=O)[nH]c2c1 | 16.1
19 | CCOc1ncccc1C(=O)NC(C)CCc1ccccc1 (stereo not shown) | -6.92
20 | CCc1[nH]c(C(=O)O)c(C)c1C(=O)OC | 4.54
21 | O=C(CC(c1ccco1)S(=O)(=O)c1ccccc1)c1ccc(F)cc1 (stereo not shown) | 1.66
22 | C=CCSc1nc2ccsc2c(=O)n1-c1cccnc1 | -8.97

Row | SMILES | hERG current change (%, negative = inhibition) at 10uM [%]
23 | NC(=O)CC(NC(=O)Cc1ccc(Br)cc1)c1ccc(NCC2CC2)c([N+](=O)[O-])c1 (stereo not shown) | -16.3
24 | CCCCC(=O)NC1(C(F)(F)F)C(=O)Nc2c1c(=O)n(C)c(=O)n2C (stereo not shown) | -4.15
25 | O=C(COc1ccc([N+](=O)[O-])cc1)NCc1ccccc1 | -38.9
26 | CC1(C)Cc2c(cnn2-c2cccc(F)c2)C(NC(=O)c2cc[n+]([O-])cc2)C1 (stereo not shown) | -37.3
27 | COc1cccc(N2CCN(C(=S)Nc3cccc(C)c3)CC2)c1 | 1.42
28 | COc1ccc(NC(=O)CN(C)C(=O)CN2C(=O)NC3(CCCCC3)C2=O)cc1 | 3.29
29 | O=C1CC(c2cccs2)c2ccc3ccccc3c2N1 (stereo not shown) | 14.6
30 | CC[C@H](C)/C=C(C)/C=C/C1=CC2=C(Cl)C(=O)[C@@](C)(OC(C)=O)C(=O)C2=CO1 | 11.5
31 | Cc1ccc(N2CCN(C3=NC(=O)/C(=C\c4cccs4)S3)CC2)cc1 | -22.7
32 | O=C1NCCN(Cc2c(F)cccc2Cl)C1CC(=O)N1CCCCO1 (stereo not shown) | 24.1
33 | O=C(c1ccc(NS(=O)(=O)c2ccccc2)cc1)N1CCCCCC1 | -11.9
34 | O=C(O)CC(C(=O)Nc1ccc(Cl)cc1Cl)C1CCCO1 (stereo not shown) | 20.2
35 | CC(=O)c1cccc(NC(=O)CN(C)S(=O)(=O)c2ccccc2)c1 | -11.5
36 | COC(=O)c1ccsc1NC(=O)CN1C(=O)CCC1=O | 2.02
37 | O=C(CNC(=O)c1ccc(Cl)cc1)OCC(=O)c1ccccc1 | -9.01
38 | N=C(N)N1CCc2ccccc2C1.O=S(=O)(O)O | -1.74
39 | COc1ccc(OC)c(S(=O)(=O)N2CCC3(CC2)CC(=O)c2ccccc2O3)c1 | -47.1
40 | Cc1cc(CN(C)C(=O)c2ccc3nc(Cc4ccccc4F)oc3c2)on1 | -5.71
41 | Cc1ccccc1Nc1cccc2nonc12 | 5.69
42 | Cc1ccc(-n2nnnc2SC(C(=O)c2c[nH]c3ccccc23)c2ccccc2)cc1 (stereo not shown) | 6.56
43 | CSc1ccc(CN(C)C(=O)CNC(=O)CNS(=O)(=O)c2ccc(C)c(C)c2)cc1 | -24.1
